Test results taken from PubChem BioAssay AID894 (National Center for Advancing Translational Sciences (NCATS), 2007).
Several values for one entry are separate records, joined by “and”; a condition that tells them apart may be missing. Identical values can stand only once. About 6,500 (4.3%) of roughly 150,000 compounds were called active. This list was built around the results that the source calls inconclusive (neither active nor inactive); the mix of calls is not that of the screen. Calls follow the shape of the dose curve; as a rule, active = well fitted inhibition curve with a large enough effect (not every such curve was filed as active); inconclusive = small, poorly fitted or top-dose-only effect, or another doubt; inactive = no such curve, though single readings can be large or run the other way. Potencies beside an inconclusive call are fits to weak or partial responses and may not hold up.

These molecules were tested against 15-hydroxyprostaglandin dehydrogenase [NAD(+)] (Homo sapiens) (UniProt P15428) (assay: qHTS Assay for Inhibitors of HPGD (15-Hydroxyprostaglandin Dehydrogenase)). Details: purified HPGD, NADH fluorescence kinetic, PGE2 substrate; activity change, negative = inhibition: stronger effect = lower value.
Procedure, shortened: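 NADH formation kinetics: reaction with 30 uM PGE2 and 1 mM NAD+ (final), 20 nM enzyme, Tris-HCl pH 8 with Tween 20, after 15 min compound preincubation at room temperature. Fluorescence change, last versus first of five reads.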
% is scaled to controls: 0 for no effect and ±100 for the full control effect; potency is read from the fitted curve at half-maximal effect; tags tell the direction and shape of the fitted curve.

Chain of UniProt P15428 (P15428 whole entry, looked up): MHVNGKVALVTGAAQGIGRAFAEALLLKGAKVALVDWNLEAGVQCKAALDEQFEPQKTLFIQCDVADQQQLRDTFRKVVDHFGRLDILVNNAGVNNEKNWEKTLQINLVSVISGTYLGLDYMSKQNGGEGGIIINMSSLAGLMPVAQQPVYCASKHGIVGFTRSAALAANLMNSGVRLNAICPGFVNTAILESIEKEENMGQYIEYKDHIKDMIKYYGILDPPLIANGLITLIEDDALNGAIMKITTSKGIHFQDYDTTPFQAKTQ

Activity change, negative = inhibition, inactive:
CC1CCCC(NC(=S)NC(=O)c2cncc(Br)c2)C1C (stereo not given) -11.6%
CCOC(=O)C(C(=O)NCCCN1CCOCC1)C1CCCCC1 (stereo not given) -7.68%
CCCCCCCCCCC/C=C\C/C=C\CCCC(=O)O -8.03%
Cc1[nH]nc2c1C1(C(=O)N(Cc3ccc(Cl)cc3)c3ccccc31)C(C#N)=C(N)O2 (stereo not given) -10%
O=C(NNC(=O)C1CC1c1ccccc1)Nc1ccccc1 (stereo not given) -5.45%
O=C(Cn1cnc2ccccc21)NCCCN1CCOCC1 -12.8%
Cn1c(N)c(C(=O)COC(=O)c2cc(-c3ccccc3)nc3ccccc23)c(=O)n(Cc2ccccc2)c1=O -27.7%
O=C1c2ccccc2-c2onc3c(Oc4ccccc4)cc(O)c1c23 -28.5%

Potency, active:
COc1ccccc1-n1c(N)c(C(N)=O)sc1=S 28.2 µM
CC1(C)O[C@H]2OC([C@H](O)CON3C(=O)c4ccccc4C3=O)[C@H](O)[C@H]2O1 (stereo not given in full) 15.8 µM

Potency, inconclusive:
CCCCCOC(=O)CSc1nc2c(c(=O)[nH]c(=O)n2C)n1Cc1ccc(Cl)cc1 28.2 µM [inhibitor, single point]
CCOc1ccccc1NC(=O)CCC(=O)Nc1ccc2nc(N3CCN(C)CC3)cc(C)c2c1 28.2 µM [inhibitor, partial curve]
COc1ccc(C2=CC(=O)OC3(CCCCC3)O2)cc1 17.8 µM [inhibitor, partial curve]
CCOC(=O)CSc1nnc(NC(=O)c2cc([N+](=O)[O-])cc([N+](=O)[O-])c2)s1 35.5 µM [inhibitor, partial curve, poor fit]
COCCSc1ccccc1C(=O)NCCCn1ccnc1 25.1 µM [inhibitor, partial curve]
Cn1c(N)c(C(=O)COC(=O)c2cc(-c3ccccc3)nc3ccccc23)c(=O)n(Cc2ccccc2)c1=O 31.6 µM [inhibitor, single point]
Cc1ncn(-c2ccccc2O)c1C 3.16 µM [inhibitor, partial curve]
Cc1nc(N=Nc2cc(S(=O)(=O)O)c3cc([N+](=O)[O-])cc(S(=O)(=O)O)c3c2)c(COP(=O)(O)O)c(C=O)c1O 12.6 µM [inhibitor, full curve] and 14.1 µM [inhibitor, partial curve]
COc1ccc2c(c1)c(=O)oc1cc3occ(C(C)(C)C)c3cc12 39.8 µM [inhibitor, single point]
N#Cc1nc(-c2ccco2)oc1N1CCN(C(c2ccccc2)c2ccccc2)CC1 28.2 µM [inhibitor, partial curve]
